Laboratory results as given in PubChem BioAssay AID686978 (National Center for Advancing Translational Sciences (NCATS), 2013).
The campaign covered roughly 420,000 compounds. About 64,000 (15%) were called active. Inconclusive results, whose numbers are uncertain, are shown with a selection of clear calls. The call rests on the fitted dose curve; in most records, active means well fitted inhibition curve with a large enough effect; inconclusive means small, poorly fitted or top-dose-only effect; inactive means flat fitted curve, though single readings scatter. No potency is given beside an inconclusive call; the fits are too rough.

experiment: qHTS for Inhibitors of human tyrosyl-DNA phosphodiesterase 1 (TDP1): qHTS in cells in absence of CPT; settings: DT40 Tdp1-/- hTDP1 cells, no CPT, ATP luminescence, 48 h; activity change, negative = growth inhibition: at 46.2 µM (top of the series); further: nearly all actives have a fitted effect of over 55% in size
Procedure, shortened: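 Luminescent ATP content (CellTiter-Glo) served as the growth readout. Knockout chicken DT40 cells expressing human TDP1 were exposed to compounds without camptothecin for a minimum 48 hr at 37 °C.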
On the % scale 0 is the no-effect control and ±100 the full control effect; potency means the concentration at half of the fitted maximal effect; tags describe the fitted curve by direction and shape.

| Compound | activity change, negative = growth inhibition | Potency |
| --- | --- | --- |
| O=C(CSc1nncs1)NCc1ccc2c(c1)OCO2 | inactive: -18.6% |  |
| COc1cc(OC)cc(C(=O)Oc2ccc(/C=N/Nc3nc4ccccc4s3)cc2OC)c1 |  | inconclusive [inhibitor, single point] |
| CCOC(=O)CNC(=O)c1cc2c(=O)n3cccc(C)c3nc2n1C | inactive: -1.73% |  |
| CN1C(=O)Nc2cccc3cccc1c23 | inconclusive: -35.3% [inhibitor] |  |
| CCCn1c(C2CCCN2c2nc(-c3ccc(C)cc3)cs2)nc2ccccc21 (configuration not stated) |  | inconclusive [inhibitor, single point] |
| COc1ccccc1C(=O)NC(C(=O)NCCc1nc2ccccc2[nH]1)=C(C)C | inactive: -1.44% |  |
| CC(C)(C)c1cccc(S(=O)(=O)N2CCN(c3nc(-c4cccs4)nc4ccccc34)CC2)c1 |  | inconclusive [inhibitor, single point] |
| Cc1cccc(-c2noc(CN(C)S(=O)(=O)c3cc(Cl)ccc3Cl)n2)c1 | inactive: -29.1% |  |
| N#CC1=C(Nc2ccccc2Cl)SC2(CCCC2)NC1=O |  | active: 18.4 µM |
| COc1ccc(OC)c(-c2nn(-c3ccccc3)cc2C(=O)NCC(c2cccs2)N2CCOCC2)c1 (configuration not stated) |  | inconclusive [inhibitor, single point] |
| CC(=O)c1ccc(N2CCN(C(=O)c3cccs3)C(C)C2)c(F)c1 (configuration not stated) |  | active: 20.6 µM |
| COc1cc(-c2noc(C)c2C(=O)NCc2ccc3c(c2)OCO3)cc(OC)c1OC |  | inconclusive [inhibitor, single point] |
| O=C(CN1C(=O)NC2NC(=O)NC21)N/N=C/c1ccccc1O (configuration not stated) | inactive: -2.7% |  |
| COc1ccc(CC(=O)Oc2cc(C)ccc2C)cc1 | inactive: 0.218% |  |
| O=C(Nc1ccncc1)Nc1ccccc1Cl |  | inconclusive [inhibitor, partial curve, poor fit] |
| O=C(COC(=O)c1cccc(OC(F)F)c1)Nc1cccc(S(=O)(=O)N2CCCC2)c1 | inactive: -19.5% |  |
| CN(CCCC(=O)Nc1nccs1)S(=O)(=O)c1ccc(Cl)cc1 |  | inconclusive [inhibitor, single point] |
| CC(NC(=O)C(=O)N/N=C\c1cccc([N+](=O)[O-])c1)c1ccccc1 (configuration not stated) | inactive: -8.18% |  |
| COc1cc(C(=O)N2CCN(c3ccccc3F)CC2)ccc1OCC(=O)N1CCOCC1 | inactive: 6.5% |  |
| Cc1cccc(NC(=O)CNC(=O)COc2ccc(-c3ccc(C#N)cc3)cc2)c1C |  | active: 13 µM |
| CNc1nc(C)c(C(=O)c2ccc(Cl)cc2)s1 |  | inconclusive [inhibitor, single point] |
| Fc1ccccc1N1CCN(C2CCCN(Cc3ccccc3C(F)(F)F)C2)CC1 (configuration not stated) |  | inconclusive [inhibitor, single point] |
